The values below come from PubChem BioAssay AID1745853 (National Center for Advancing Translational Sciences (NCATS), 2022).

The structures appear in SMILES notation. The list shows a part of the results. Further columns of the screen follow, without active or inactive calls.

Assay in all cases: Primary Screen for Target Class Profiling of Small Molecule Inhibitors of Methyltransferases
The target of assay [1] is Glycine N-methyltransferase (Homo sapiens) (UniProt Q14749). Conditions: purified enzyme, MTase-Glo SAH luminescence; measured here: GNMT inhibition; at 40 µM; stronger effect = lower value. In outline: (§1)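 Each enzyme was reacted with SAM and its substrate, with compounds tested once at 40 uM; SAH formed was read by MTase-Glo luminescence.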
For assay [2], the target named is Guanidinoacetate N-methyltransferase (Homo sapiens) (UniProt Q14353). The note with it: purified enzyme, MTase-Glo SAH luminescence; measured here: GAMT inhibition; at 40 µM; stronger effect = lower value. In outline: as §1
Assay [3] deals with Histamine N-methyltransferase (Homo sapiens) (UniProt P50135). The note with it: purified enzyme, MTase-Glo SAH luminescence; measured here: HNMT inhibition; at 40 µM; stronger effect = lower value. In outline: as §1
For assay [4], the target named is Nicotinamide N-methyltransferase (Homo sapiens) (UniProt P40261). The note with it: purified enzyme, MTase-Glo SAH luminescence; measured here: NNMT inhibition; at 40 µM; stronger effect = lower value. The method in brief: as §1
In assay [5] the target is Phenylethanolamine N-methyltransferase (Homo sapiens) (UniProt P11086). Conditions: purified enzyme, MTase-Glo SAH luminescence; measured here: PNMT inhibition; at 40 µM; stronger effect = lower value. The method in brief:
as §1
On the % scale 0 is the no-effect control and ±100 the full control effect.

Take `Cc1ccc(C)c(Cn2nc3n(C(C)C)c(=O)c4ccc(C(=O)NCC(C)C)cc4n3c2=O)c1`: the activity change, negative = inhibition in assay [1] amounted to 1.19%; in assay [2], 0%; in assay [3] it was 4.22%; in assay [4], 0.37%; in assay [5] it was 0.03%.

Regarding `Cc1ccc(NC(=O)Cn2nc3n(CC(C)C)c(=O)c4ccc(C(=O)NC(C)C)cc4n3c2=O)cc1F`, the activity change, negative = inhibition is 5.32% in assay [1]; 0% in assay [2]; 10% in assay [3]; 4.54% in assay [4]; 4.14% in assay [5].

Regarding `C/C=C(\C)C(=O)O[C@H]1[C@@H](O[C@]2(COC(=O)CC(C)C)O[C@H](COC(=O)C(C)C)[C@@H](OC(C)=O)[C@@H]2O)O[C@H](COC(C)=O)[C@@H](O)[C@@H]1O`, the activity change, negative = inhibition in assay [1] was 0%; in assay [2] it was -4.29%; in assay [3], -4.03%; in assay [4] it was -17.1%; in assay [5], -1.95%.

Take `CCN1C(=O)CCc2cc(NC(=O)c3ccn(CC)n3)ccc21`: the activity change, negative = inhibition in assay [1] is -11.9%; in assay [2] it was -10.8%; in assay [3], -8.03%; in assay [4], -20.5%; in assay [5] it was -15.6%.

For `COC1CCN(c2cc(-c3ccsc3)nc3c(C)noc23)CC1`, the activity change, negative = inhibition in assay [1] is -24.4%; in assay [2], -16.8%; in assay [3], -21.6%; in assay [4], -51%; in assay [5], -10.4%.

`CC(C)N1CCCC2(CCN(C(=O)c3cc(C#N)cn3C)C2)C1=O` (stereo not drawn): the activity change, negative = inhibition in assay [1] is 2.46%; in assay [2], -0.156%; in assay [3] it was -0.464%; in assay [4] it was 1.01%; in assay [5] it was 2.91%.

`C[C@H]1[C@H](C)CC[C@]2(C(=O)O)CC[C@]3(C(=O)O)C(=CCC4[C@@]5(C)CC[C@H](O[C@@H]6O[C@@H](C)[C@H](O)[C@@H](O)[C@H]6O)C(C)(C)C5CC[C@]43C)[C@H]12` (stereo partly drawn): the activity change, negative = inhibition is -0.445% in assay [1]; 0.013% in assay [2]; 6.13% in assay [3]; -11% in assay [4]; 1.18% in assay [5].

For `CC1CCC(NC(=O)C2(C)Cn3c(cc4occc43)C(=O)N2CCCc2ccccc2)CC1` (stereo not drawn), the activity change, negative = inhibition in assay [1] was -4.88%; in assay [2], 0%; in assay [3], 5.86%; in assay [4] it was 1.1%; in assay [5] it was -0.66%.

As to `COc1ccc(-c2cc3n(n2)CC(C)(C(=O)NCc2ccccc2OC)N(CCc2ccccc2)C3=O)cc1` (stereo not drawn), the activity change, negative = inhibition was 0.49% in assay [1]; 2.83% in assay [2]; -2.96% in assay [3]; -0.996% in assay [4]; -5.73% in assay [5].

Turning to `Cc1nc(C2CC23CCN(C(=O)Nc2ccccc2F)CC3)no1` (stereo not drawn), the activity change, negative = inhibition in assay [1] is -0.082%; in assay [2], -5.47%; in assay [3], -0.041%; in assay [4] it was -6.85%; in assay [5], 2.71%.

Regarding `CN1CCN(C(=O)c2cc(-c3ccsc3)nc3c2cnn3C)CC1`, the activity change, negative = inhibition in assay [1] is -10.9%; in assay [2], -8.09%; in assay [3], -6.38%; in assay [4], -13.7%; in assay [5] it was -11.1%.

With `COc1cccc([S+](=O)([O-])N2CCN(CCn3nc4n(c3=O)CCCC4)CC2)c1`, the activity change, negative = inhibition in assay [1] is -0.602%; in assay [2], 1.54%; in assay [3], 2.97%; in assay [4], -6.1%; in assay [5], -14.9%.

For the molecule `Cc1nc2c3ccccc3n3c(CCCC(=O)NCCCN(C)Cc4ccccc4)nnc3n2n1`, the activity change, negative = inhibition in assay [1] is -12.7%; in assay [2], 5.82%; in assay [3] it was -31%; in assay [4], 0.78%; in assay [5] it was -2.9%.

Regarding `CN1CCN(c2ccc(-c3noc([C@@H]4CCCN4Cc4ccccc4)n3)cn2)CC1`, the activity change, negative = inhibition is -3.95% in assay [1]; -3.68% in assay [2]; -12.1% in assay [3]; -8.18% in assay [4]; -0.487% in assay [5].

`COc1ccc(C(=O)N2CCC(N3C(=O)[C@H](OC)[C@@H]3c3ccncc3)CC2)c(OC)c1`: the activity change, negative = inhibition is -6.69% in assay [1]; -5.72% in assay [2]; -3.19% in assay [3]; -12.2% in assay [4]; -8.71% in assay [5].

Turning to `CCOc1cccc(C2c3cccn3-c3sc4c(c3CN2C(=O)NCCC(=O)OC)CCCC4)c1` (stereo not drawn), the activity change, negative = inhibition in assay [1] is -5.85%; in assay [2] it was 0.717%; in assay [3], -2.67%; in assay [4], -15.7%; in assay [5], 2.07%.

As to `COc1cc(COC2OC(CO)C(O)C(O)C2O)cc(OC)c1O` (stereo not drawn), the activity change, negative = inhibition is 0% in assay [1]; 4.8% in assay [2]; 1.96% in assay [3]; -6.74% in assay [4]; 4.5% in assay [5].

As for `C[C@@H]1C[C@@H](O)[C@@]23CO[C@@H](O)[C@@H]2CCC[C@@H]3[C@@]12C[C@@H](c1ccoc1)OC2=O`, the activity change, negative = inhibition in assay [1] was 0%; in assay [2] it was 3.63%; in assay [3] it was 7.66%; in assay [4], -7.45%; in assay [5], 3.31%.

For the molecule `O=C(c1cc(-c2ccccc2)n[nH]1)N1CCc2c(nc(-c3ccccc3)[nH]c2=O)C1`, the activity change, negative = inhibition is -72.9% in assay [1]; -1.45% in assay [2]; -5.06% in assay [3]; -11.3% in assay [4]; 6.53% in assay [5].

Regarding `CN1CCCCCCN(C(=O)c2cnccn2)[C@H]2CCC[C@H]2C1=O`, the activity change, negative = inhibition in assay [1] was 1.92%; in assay [2], 3.1%; in assay [3], 2.65%; in assay [4], -3.57%; in assay [5], 13.2%.

For `COc1ccccc1CN1C(=O)c2ccc(-c3ccccc3)n2CC1(C)C(=O)NC1CCC(C)CC1` (stereo not drawn), the activity change, negative = inhibition amounted to 4.63% in assay [1]; 0.546% in assay [2]; 3.42% in assay [3]; 0.245% in assay [4]; 0.422% in assay [5].

As for `c1ccc(COC2CCN(c3nccc(-c4cccnc4)n3)CC2)nc1`, the activity change, negative = inhibition is -11.2% in assay [1]; -8.46% in assay [2]; -8.32% in assay [3]; -19.5% in assay [4]; -4.13% in assay [5].

As to `COCCCNc1nc2c(-c3cccc(Br)c3)nnn2c2ccccc12`, the activity change, negative = inhibition in assay [1] is -2.57%; in assay [2] it was 0.777%; in assay [3], -0.752%; in assay [4], 3.55%; in assay [5], -3.7%.

On to `O=C(Nc1cccc(Cl)c1)N1Cc2c(sc3c2CCCC3)-n2cccc2C1c1cccc(F)c1` (stereo not drawn), for which the activity change, negative = inhibition is -6.97% in assay [1]; 4.76% in assay [2]; -4.38% in assay [3]; -2.29% in assay [4]; -3.73% in assay [5].

As for `CC[C@@]1(O)CC2CN(CCc3c([nH]c4ccccc34)[C@](C(=O)OC)(c3cc4c(cc3OC)N(C)C3[C@@](O)(C(N)=O)[C@H](O)[C@]5(CC)C=CCN6CC[C@@]43[C@@H]65)C2)C1` (stereo partly drawn), the activity change, negative = inhibition is 12.5% in assay [2], -11.5% in assay [4] and -4.18% in assay [5].

For `Cn1cc(CNC(=O)c2ccc(OC3CCN(S(C)(=O)=O)CC3)c(Cl)c2)cn1`, the activity change, negative = inhibition is -5.52% in assay [1]; -8.08% in assay [2]; -0.83% in assay [3]; -9.54% in assay [4]; -19.6% in assay [5].

As for `O=C(OC[C@H]1O[C@H](O[C@H]2CO[C@H](CO)[C@@H](O)[C@@H]2O)[C@H](O)[C@@H](O)[C@H]1O)c1ccccc1`, the activity change, negative = inhibition is 2.08% in assay [1]; 5.27% in assay [2]; 2.93% in assay [3]; -6.74% in assay [4]; 7.08% in assay [5].

`CC(C)NC(=O)c1ccc2c(=O)n(C(C)C)c3nn(Cc4ccccc4)c(=O)n3c2c1`: the activity change, negative = inhibition is -3.48% in assay [1]; 5.34% in assay [2]; 0.317% in assay [3]; -3.38% in assay [4]; 2.76% in assay [5].

In the case of `COCC(=O)N(C)Cc1ccc(F)cc1`, the activity change, negative = inhibition is -3.3% in assay [1]; -1.38% in assay [2]; 1.43% in assay [3]; -0.532% in assay [4]; -0.835% in assay [5].

`CC(C)OCCCN1C(=O)c2ccc(-c3ccco3)n2CC1(C)C(=O)NC1CCCCCCC1` (stereo not drawn): the activity change, negative = inhibition in assay [1] is -9.2%; in assay [2] it was -3.46%; in assay [3] it was -3.1%; in assay [4], -19.3%; in assay [5] it was -6.33%.
